Source: PubChem BioAssay AID1745853 (National Center for Advancing Translational Sciences (NCATS), 2022)
The other results are listed elsewhere or left out. These are further read-outs of the screen, such as a control signal, another cell line or another target. No call is given for them.

Key:
Experiment in all cases: Primary Screen for Target Class Profiling of Small Molecule Inhibitors of Methyltransferases
[1] = molecular target: Glycine N-methyltransferase (Homo sapiens) (UniProt Q14749); conditions: purified enzyme, MTase-Glo SAH luminescence; measured here: GNMT inhibition; at 40 µM; stronger effect = lower value
In short: (§1)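 Each enzyme was reacted with SAM and its substrate, with compounds tested once at 40 uM; SAH formed was read by MTase-Glo luminescence.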

[2] = molecular target: Guanidinoacetate N-methyltransferase (Homo sapiens) (UniProt Q14353); conditions: purified enzyme, MTase-Glo SAH luminescence; measured here: GAMT inhibition; at 40 µM; stronger effect = lower value
In short: as §1

[3] = molecular target: Histamine N-methyltransferase (Homo sapiens) (UniProt P50135); conditions: purified enzyme, MTase-Glo SAH luminescence; measured here: HNMT inhibition; at 40 µM; stronger effect = lower value
In short: as §1

[4] = molecular target: Nicotinamide N-methyltransferase (Homo sapiens) (UniProt P40261); conditions: purified enzyme, MTase-Glo SAH luminescence; measured here: NNMT inhibition; at 40 µM; stronger effect = lower value
In short: as §1

[5] = molecular target: Phenylethanolamine N-methyltransferase (Homo sapiens) (UniProt P11086); conditions: purified enzyme, MTase-Glo SAH luminescence; measured here: PNMT inhibition; at 40 µM; stronger effect = lower value
In short: as §1
On the % scale 0 is the no-effect control and ±100 the full control effect.

| Compound | activity change, negative = inhibition [1] | activity change, negative = inhibition [2] | activity change, negative = inhibition [3] | activity change, negative = inhibition [4] | activity change, negative = inhibition [5] |
| --- | --- | --- | --- | --- | --- |
| CCc1cc(C(=O)N2CC[C@@H]3[C@@H](CCC(=O)N3CCN)C2)n(C)n1 | -1.41% | -3.08% | -0.356% | -2.86% | -2.61% |
| Cc1cccc(N2CCN(C(=O)CCc3nnc4n(CC(C)C)c(=O)c5ccccc5n34)CC2)c1C | -19.4% | 4.89% | 1.28% | -55.1% | -2.57% |
| CCc1cccc(N2C(=O)c3cc(C(=O)OC)nn3CC2(C)C(=O)NC2CCCCCC2)c1 (stereo not given) | 3.55% | 0% | -3.36% | 5.61% | 5.24% |
| CCOC(=O)c1cc2n(n1)CC(C)(C(=O)NC1CCCCC1)N(c1cccc(SC)c1)C2=O (stereo not given) | 3.7% | 4.05% | -7.67% | 3.05% | 3.63% |
| Cc1ccc(C(=O)N2C[C@@H](F)C[C@H]2C(=O)N2CCOCC2)cc1 | 0.733% | 4.29% | 3.25% | -4.31% | 13.8% |
| Cc1ccc(CNc2nc3c(S(=O)(=O)c4ccc(C)cc4)nnn3c3ccccc23)cc1 | -7.57% | 2.36% | -1.74% | -0.965% | -9.83% |
| N=C(N)c1ccccc1 | 3.35% | 7.16% | -16.4% | -13.9% | 1.37% |
| CCCCCc1ccc(/C=C/C(=O)Nc2cc(Cl)ccc2C(=O)O)cc1 | -29.4% | -30.9% | -9.15% | -91% | -24.4% |
| CCOC(=O)c1cc2n(n1)CC(C)(C(=O)NCc1ccccc1)N(c1ccc(C(C)C)cc1)C2=O (stereo not given) | -0.068% | 3.51% | 7.22% | 2.47% | 0.615% |
| CCN(Cc1ccncc1)C(=O)C(CO)c1ccccc1 (stereo not given) | -0.122% | 11.5% | 6.67% | -4.28% | 4.52% |
| O=C(O)Cn1nc(C2CCOCC2)nc1C1CNC(=O)C1 (stereo not given) | -2.42% | -10% | -3.68% | -10.4% | -9.87% |
| Cc1nc(Nc2ccc(F)cc2)nc(N2CCc3ccccc3C2C)c1C (stereo not given) | -2.27% | 4.83% | -1.17% | -17.7% | 1.41% |
| O=C1NCCOCCN(S(=O)(=O)c2ccc3c(c2)CCC3)[C@@H]2CCCC[C@H]12 | -0.369% | 1.68% | 2.96% | -4.6% | -7.86% |
| Cc1ccc(N2C(=O)c3cc4ccccc4n3CC2(C)C(=O)NCCC(C)C)c(C)c1 (stereo not given) | -3.08% | 4.78% | -2.36% | -0.898% | -9.9% |
| Cn1c(=O)c2ccc(C(=O)NC3CCCCC3)cc2n2c(SCc3ccccc3Cl)nnc12 | 3.69% | 2.7% | 7.3% | 14.8% | 9.92% |
| Nc1nc(SCc2ccc([N+](=O)[O-])cc2)c2ncn([C@@H]3O[C@H](CO)[C@@H](O)[C@H]3O)c2n1 | -0.384% | 8.41% | 7.83% | -10.3% | -5.44% |
| CCCN1C(=O)c2ccc(-c3ccco3)n2CC1(C)C(=O)NC1CCCCCC1 (stereo not given) | 0.044% | 0% | 4.27% | 6.55% | 1.05% |
| O=C(CCn1ccc2cc(S(=O)(=O)N3CCCC3)ccc21)NCCc1ccccc1 | 1.93% | 0% | 2.25% | -0.884% | 1.8% |
| Cc1cccc(/C=C/c2ccccc2)n1 | -22.5% | -19% | -19.5% | -30.8% | -22.8% |
| CC1(C(=O)NCc2ccc(Cl)cc2)Cn2c(ccc2-c2ccco2)C(=O)N1C1CC1 (stereo not given) | -0.76% | 3.91% | 0.146% | -2.62% | -4.45% |

| Compound | activity change, negative = inhibition [1] | activity change, negative = inhibition [2] | activity change, negative = inhibition [3] | activity change, negative = inhibition [4] | activity change, negative = inhibition [5] |
| --- | --- | --- | --- | --- | --- |
| COc1ccc(-c2cc3n(n2)CC(C)(C(=O)NCc2ccccc2OC)N(c2cccc(SC)c2)C3=O)cc1 (stereo not given) | -3.73% | 5.54% | -3.5% | -7.04% | -7.16% |
| Cn1c(=O)c2ccc(C(=O)NC3CCCCC3)cc2n2c(=O)n(CC(=O)Nc3cccc(F)c3)nc12 | 4.5% | 0% | -0.296% | 0.945% | 3.85% |
| CN1C[C@H]2CN(Cc3c[nH]c4ccccc34)CCN2C1=O | -3.09% | -3.33% | -1.08% | -1.67% | -12.2% |
| Cc1ccc(CN2C(=O)[C@@H]3C[C@@H](O)CN3C3(CN(Cc4ccccc4Cl)C3)C2=O)o1 | -4.35% | -0.702% | -0.813% | -5.38% | -15.8% |
| CN(CC(=O)N1CCC(CCOc2ccc(F)cc2)C1)S(=O)(=O)c1ccc2c(c1)oc(=O)n2C (stereo not given) | -2.12% | 3.09% | -0.812% | -36% | 4.14% |
| COc1ccccc1CN1C(=O)c2nc3ccccc3n2CC1(C)C(=O)NCc1ccccc1 (stereo not given) | -4.18% | 0% | 4.11% | 5.21% | -1.53% |
| CCOC(=O)C1CCN(C(=O)CN(C)S(=O)(=O)c2ccc3[nH]c4c(c3c2)CCCC4)CC1 | -8.37% | -4.75% | -1.18% | -4.13% | -5.96% |
| O=C(Cc1cccs1)NC1CC(c2cc(N3CCC(O)C3)ncn2)C1 (stereo not given) | -3.08% | -4.78% | 0.518% | -10.5% | 9.91% |
| c1ccc(-c2nnc([C@H]3CCN(C4CCC4)C3)o2)cc1 | -10.9% | -5.27% | -26% | -12.8% | -4.02% |
| O=c1[nH]c2ccc(S(=O)(=O)N3CCc4ccccc4C3)cc2[nH]1 | 6.44% | 0% | 4.74% | 1.93% | -1.84% |
| CC(C)Cn1c(=O)c2ccc(Cl)cc2n2c(SCC(=O)Nc3cccc(Cl)c3)nnc12 | -6.8% | 0.808% | -4.45% | -9.82% | -5.55% |
| O=c1c2ccccc2n2c(=O)n(Cc3cccc(Cl)c3)nc2n1Cc1ccc(F)cc1 | 9.14% | 4.03% | 9.29% | 1.84% | 3.72% |
| C=C(C)C1CC[C@]2(C(=O)O)CC[C@]3(C(=O)O)[C@H](CCC4[C@@]5(C)CC[C@H](O)C(C)(C)C5CC[C@]43C)C12 (stereo not given in full) | 0.254% | -0.738% | 5.11% | -11.1% | -8% |
| CCCn1c(=O)c2ccccc2n2c(=O)n(CC(=O)Nc3ccc4c(c3)OCCO4)nc12 | 0.126% | 0% | 3.28% | -1.31% | 2.22% |
| CC1CCC(NC(=O)Cn2c(=O)oc3cc(S(=O)(=O)N4CCCC4)ccc32)CC1 (stereo not given) | -3.65% | 0% | 4.22% | -2.28% | -23.6% |
| NC(=O)[C@@H]1C[C@H](Oc2cccnc2)CN1C(=O)C1CCCCC1 | -0.589% | 2.41% | 0.788% | 0.565% | -3.44% |
| CCn1cc(C(=O)O)c(=O)c2ccc(C)nc21 | 3.4% | 12.3% | 4.71% | 1.81% | 11.7% |
| CC(=O)O[C@H]1CC(C)(C)CC2[C@]13CO[C@@]21CCC2[C@@]4(C)CC[C@H](O[C@@H]5OC[C@H](O[C@@H]6O[C@H](CO)[C@@H](O)[C@H](O)[C@H]6O[C@@H]6OC[C@@H](O)[C@H](O)[C@H]6O)[C@H](O)[C@H]5O[C@@H]5O[C@H](CO)[C@@H](O)[C@H](O)[C@H]5O)[C@@](C)(CO)C4CC[C@@]2(C)[C@]1(C)C[C@H]3O (stereo not given in full) | -1.15% | -5.36% | 6.15% | -12.1% | 4.09% |
| CN1CCCN(C(=O)CN2CC3CC(C2)[C@H]2CCCC(=O)N2C3)CC1 (stereo not given in full) | -2.29% | -2.09% | -2.31% | -5.59% | -3.27% |
| CN1C(=O)c2cc(C(=O)N3CCN(c4ccccc4)CC3)nn2CC1(C)C(=O)NCc1ccccc1 (stereo not given) | 6.25% | 0.489% | 9.3% | 13.4% | 8.93% |

| Compound | activity change, negative = inhibition [1] | activity change, negative = inhibition [2] | activity change, negative = inhibition [3] | activity change, negative = inhibition [4] | activity change, negative = inhibition [5] |
| --- | --- | --- | --- | --- | --- |
| CCC(C)NC(=O)c1ccc2c(=O)n(C(C)C)c3nn(CC(=O)Nc4cc(C)cc(C)c4)c(=O)n3c2c1 (stereo not given) | 0.841% | -1.94% | -1.42% | -4.64% | -4.59% |
| CC[C@@]1(O)CCN(C(=O)c2ccccc2OCc2ccccc2)C[C@H]1O | 2.71% | 0.041% | 0.165% | -0.669% | -13.8% |
| COc1ccccc1CNC(=O)C1(C)Cn2nc(-c3ccccc3)cc2C(=O)N1c1ccc(F)cc1 (stereo not given) | 0.243% | 2.56% | 1.64% | 2.81% | -5.25% |
| CCCCn1ccc(N2CCC(c3ccccc3)CC2)c(Cl)c1=O | -15.6% | -9.78% | 3.35% | -23.4% | -7.49% |
| CN(C(=O)c1cccn1C)C1CCc2nn(C)c(=O)n2CC1 (stereo not given) | -2.04% | 1.57% | -2.98% | -0.157% | -13.3% |
| Cc1cccc(-c2nnn3c2nc(N2CCCC2)c2cc(Cl)ccc23)c1 | -1.66% | -1.79% | 2.69% | 5.81% | -1.56% |
| C#CCN(C)Cc1ccccc1 | -3.63% | 2.97% | -1.06% | -9.96% | -0.526% |
| COc1ccc(N2C(=O)c3cc4ccccc4n3CC2(C)C(=O)NCCC(C)C)cc1 (stereo not given) | 1.04% | 4.73% | 2.99% | 7.02% | -2.2% |
| O=c1[nH]c2ccccc2c2ccccc12 | -7.17% | 9.09% | 1.57% | -9.77% | 1.19% |
| CC(C)OCCCN1C(=O)c2ccc(-c3ccccc3)n2CC1(C)C(=O)NC1CCCCC1 (stereo not given) | 4.42% | 6.28% | 2.44% | 4.41% | 2.34% |
| O=C(N[C@H](Cc1ccccc1)C(=O)O)c1sc2cc(F)ccc2c1Cl | -10.8% | 0.435% | 8.75% | -23.1% | -0.768% |
| CC1(C(=O)NCc2ccccc2)Cn2c(cc3ccccc32)C(=O)N1C1CCN(Cc2ccccc2)CC1 (stereo not given) | -0.579% | -0.467% | 4.52% | -0.849% | -1.12% |
| C=C1C(=O)O[C@@H]2[C@H]1CCC(C)=C(CCC(=O)O)[C@@]2(C)O | 2% | 1.93% | 9.69% | -8.2% | 1.24% |
| CCCn1c(=O)c2ccc(C(=O)NC3CCCC3)cc2n2c(=O)n(CC(=O)NCc3ccccc3)nc12 | 4.91% | 0% | 8.02% | -0.271% | 5.81% |
| CC1(C(=O)NC2CCCC2)Cn2c(nc3ccccc32)C(=O)N1Cc1cccc(Cl)c1 (stereo not given) | 3.67% | 0% | 6.46% | 6.97% | 2.71% |
| Cc1ccc(CNC(=O)CNC(=O)C2(C)Cn3c(cc4ccccc43)C(=O)N2C)cc1 (stereo not given) | -1.88% | 4.75% | -0.858% | 6.35% | -1.16% |
| CCc1ccc(NC(=O)CSc2nnc3n(Cc4ccc(C)cc4)c(=O)c4ccccc4n23)cc1 | 5.88% | 0.101% | 13.2% | 8% | 5.37% |
| O=S(=O)(c1ccccc1F)N1CC(c2nc(Cc3ccccc3)no2)C1 | -4.5% | 0.504% | 1.75% | -0.533% | -2.62% |
| CN(Cc1ccc(C(=O)O)cc1)c1ccc(OCc2c(-c3c(Cl)cccc3Cl)noc2C2CC2)nc1C(F)(F)F | -25.8% | -12.1% | -8.49% | -84% | -5.75% |
